Results: PubChem BioAssay AID434955 (Southern Research Specialized Biocontainment Screening …, 2010)
This is one part of the list. The main result of the screen is listed elsewhere. These columns were measured beside it and carry no call. Most of these compounds were active or inconclusive in the main read-out, so they are no random draw.

assay: beta-lactam sensitization of Mtb H37Rv, H37Rv (AID 434955);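 further: growth measured after seven days incubation then overnight dye step; 0% = bacteria only wells and 100% = bacteria with antibiotic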; details: M. tuberculosis H37Rv growth with meropenem, percent inhibition; measured here: primary screen without meropenem; at 25 µM

Row | Structure (SMILES) | inhibition
1 | CCOc1ccc(NC(=O)c2ccccc2SC)cc1 | 7.12%
2 | CCCn1cc(S(=O)(=O)c2ccccc2)c(=O)c2cc(CC)ccc21 | 4.99%
3 | CCOC(=O)C1CCCCN1Cc1ccc(F)c(Br)c1 (stereo unspecified) | 2.82%
4 | CCOc1cccc2sc(NC(=O)CCS(=O)(=O)c3ccccc3)nc12 | 23.1%
5 | O=C(CSc1ccc2nnc(-c3ccccn3)n2n1)Nc1ccccc1F | -0.82%
6 | CC(C)CC(=O)Nc1ccc(F)c(Cl)c1 | -11.3%
7 | COc1ccc(C(=O)n2c(SC)nc3cc4c(cc32)OCCO4)cc1 | 12.6%
8 | O=C(c1cccn2c(=O)c3cc(Cl)ccc3nc12)N1CCOCC1 | 3.83%
9 | Cc1nnc(SCC(=O)N2CCCC(N3CCN(c4ccc(F)cc4)CC3)C2)o1 (stereo unspecified) | -1.06%
10 | CCOc1ccc(S(=O)(=O)c2cn(C)c3cc(OC)c(OC)cc3c2=O)cc1 | 3.2%
11 | C=CCc1cc(Cl)ccc1OCCCNC(C)CC (stereo unspecified) | 4.45%
12 | Clc1cc(Cl)c2nc(N3CCCC3)sc2c1 | -2.46%
13 | Cc1ccc2c(c1)N(CC(=O)NCCCN1CCOCC1)C(=O)c1cccnc1O2 | -4.11%
14 | CCN(CC)CCCn1c(=S)[nH]c2cc(Cl)ccc2c1=O | -5.64%
15 | COc1cc(CN2CCNC(=O)C2CC(=O)N(C)CCCN2CCOCC2)cc(OC)c1 (stereo unspecified) | -16.3%
16 | Cc1oc(-c2ccc(Cl)cc2)nc1CN1CCCN(C(=O)c2ccco2)CC1 | 17.2%
17 | CCN1CCN(C(=O)c2ccc(Cn3c(=O)[nH]c4cc(OC)c(OC)cc4c3=O)cc2)CC1 | -11.9%
18 | CC1=C(C(=O)NC(C)c2ccc3c(c2)OCCO3)C2(CCC(C)CC2)OC1=O (stereo unspecified) | -8.12%
19 | COC(=O)c1cc(NC(=O)Cc2ccccc2[N+](=O)[O-])cc(C(=O)OC)c1 | -8.41%
20 | Cc1ccc(S(=O)(=O)c2nc(-c3ccc(F)cc3)oc2SCC(=O)NCC2CCCO2)cc1 (stereo unspecified) | -3.3%
21 | Cn1c2c(c(=O)n(C)c1=O)C(C(F)(F)F)(C(F)(F)F)N=C(CCC1CCCCC1)N2 | 11.6%
22 | Cc1ccccc1N1CCN(C2CCCN(C(=O)CCC3(C)CC3)C2)CC1 (stereo unspecified) | 2.97%

Row | Structure (SMILES) | inhibition
23 | CCCN1CC23C=CC(O2)C(C(=O)O)C3C1=O (stereo unspecified) | -5.08%
24 | Cc1cc(N2CCOCC2)nc2ccc(NC(=O)CCC(=O)N3CCC(C)CC3)cc12 | -4.85%
25 | C/C(=N\NC(=O)c1ccncc1)c1c(O)n(-c2ccccc2)c(=O)[nH]c1=O | 53.8%
26 | CC(Cc1cccs1)NC(=O)CCCn1nnnc1CN1CCOCC1 (stereo unspecified) | -5.49%
27 | OCCN1CCN(c2nc(-c3ccccc3)c3cc(Br)ccc3n2)CC1 | 69.4%
28 | Cc1cc(=O)[nH]c(N/N=C/c2cccs2)n1 | 1.34%
29 | COc1cc(NC(=O)C2CCCCC2)c(OC)cc1NC(=O)CN1CCCCC1 | 25.7%
30 | Fc1ccc(COc2ccc(Br)cc2CNCc2ccncc2)cc1 | 9.77%
31 | CCOC(=O)C1CCN(c2ccc(C(N)=O)cc2[N+](=O)[O-])CC1 | 42.2%
32 | COc1ccc(-c2cc(-c3n[nH]c(=S)n3-c3cc(OC)ccc3OC)[nH]n2)cc1 | -8.22%
33 | O=C(Nc1nnc(SCc2ccc(Cl)cc2Cl)s1)C1COc2ccccc2O1 (stereo unspecified) | -1.24%
34 | COc1ccc(NCC(=O)N/N=C/C=C\c2ccccc2)cc1 | 89.9%
35 | Cc1ncc(CN2CCCC(C(=O)Nc3ccc(-c4cccc(F)c4)cc3)C2)n1C (stereo unspecified) | 5.41%
36 | CCN(c1ccccc1)S(=O)(=O)c1cc2c(cc1C)n(C)c(=O)c(=O)n2C | -14.8%
37 | Cc1ccccc1NS(=O)(=O)c1ccc2c3c(cccc13)C(=O)N2C | 14.6%
38 | Cc1cc(C(=O)N/N=C/c2cn(C)nc2C)c2ccccc2n1 | 2.89%
39 | Cc1nn(-c2ccccc2)c(Cl)c1/C=N/NC(=O)c1nn(C)cc1[N+](=O)[O-] | 3.65%
40 | CCCSc1nnc(Cn2c(=O)sc3ccccc32)n1-c1ccccc1 | -0.92%
41 | COc1ccc(C(=O)N2CCN(S(=O)(=O)c3ccc(Cl)cc3)CC2)cc1OC | -2.04%
42 | CCN(CC)S(=O)(=O)c1cccc(NC(=O)/C=C/c2ccc([N+](=O)[O-])cc2)c1 | 3.02%
43 | COc1ccccc1CNC(=O)CNC(=O)c1sc2ccccc2c1Cl | -4.17%
44 | COc1cccc(-c2n[nH]c(=S)n2Cc2ccco2)c1OC | -13.4%

Row | Structure (SMILES) | inhibition
45 | O=C(CSc1nnc(CNC(=O)c2ccccc2)o1)NCc1ccc2c(c1)OCO2 | 4.78%
46 | CC1CCN(C(=O)COC(=O)Cc2c[nH]c3ccccc23)CC1 | -7.49%
47 | CC(=O)c1sc(N/N=C\c2ccc(N(C)C)cc2)nc1C | 18.3%
48 | CCCCOC(=O)CCn1[nH]c(=O)c2ccccc2c1=O | -7.81%
49 | O=c1oc2ccc(Cl)cc2cc1-c1ccccc1 | -5.78%
50 | Nc1nnc(SCCCC(=O)c2ccc(F)cc2)s1 | -2.25%
51 | CCOC(=O)c1c(/N=C/c2cccc([N+](=O)[O-])c2O)sc(C)c1C | -3.04%
52 | Nc1ncnc2c1c(-c1ccc(Oc3ccccc3)cc1)cn2C1CCCC1 | -4.72%
53 | CC(C)(O)CC[C@H](OC(=O)c1ccccc1)[C@](C)(O)[C@H]1CC[C@@]2(O)C3=CC(=O)[C@@H]4C[C@@H](O)[C@H](O)C[C@]4(C)C3CC[C@]12C (stereo partly specified) | -2.48%
54 | CCOCCOC(=O)c1[nH]c2c(c1C)C(=O)CC(c1ccc(N(C)C)cc1)C2 (stereo unspecified) | 4.62%
55 | O=C(Nc1ccc(-n2ccc(C(F)(F)F)n2)cc1)c1cccs1 | 37.9%
56 | CSc1nnc(-c2ccc(NC(N)=S)cc2)o1 | 7.18%
57 | CCOC(=O)COn1c(-n2nc(C)cc2C)nc2ccccc2c1=O | 92.5%
58 | O=C(COC(=O)c1ccccn1)Nc1nccs1 | -0.23%
59 | CSc1ccccc1OCc1cc(C(=O)N2C[C@H]3CC[C@H]2C3)no1 | -0.65%
60 | N#Cc1cc2c(nc1SCC(=O)Nc1sc3c(c1C#N)CCC3)CCCCC2 | -2.02%
61 | COc1ccc(CNS(=O)(=O)c2ccc3c(c2)C(C)(C)C(=O)N3C)cc1 | -1.03%
62 | COC(=O)c1c(NC(=O)C2CC=CCC2C(=O)O)sc(C)c1C (stereo unspecified) | -0.15%
63 | Cc1sc2nc(CSCC(=O)Nc3ccccc3C#N)[nH]c(=O)c2c1C | -0.53%
64 | O=C(CSc1n[nH]c(=O)n1C1CC1)c1ccc2c(c1)OCCO2 | 42.6%
65 | Cc1ccc(NC(=O)CCS(=O)(=O)c2ccc3nc(C)sc3c2)cc1 | -12.9%
66 | CCc1c(C)c(C#N)c2nc3ccccc3n2c1NCCN(C)C | -0.14%

Row | Structure (SMILES) | inhibition
67 | O=C(Nc1ccc2oc(-c3ccc(Cl)c(Cl)c3)nc2c1)c1ncn[nH]1 | 50.6%
68 | Cc1ccc(-c2noc(C3CCN(S(=O)(=O)c4ccc5c(c4)OCCO5)CC3)n2)o1 | 3.56%
69 | CC(=O)Nc1ccc(S(=O)(=O)N2CCN(Cc3csc(C)n3)CC2)cc1 | -13%
70 | C[C@]12CCC3[C@@H](CC[C@H]4C[C@@H](O)CC[C@]34C)C1CCC2=O (stereo partly specified) | 4.67%
71 | COc1ccc(-c2cc(=Nc3ccc(C)cc3)c3ccccc3o2)cc1 | 18.3%
72 | COc1ccc(OC)c(CCNC(=O)CN2C(=O)CC(C)(C)S(=O)(=O)c3ccccc32)c1 | -6.35%
73 | Cc1cc(C(=O)NCC(=O)Nc2c(C)cccc2C)c(C)o1 | -0.88%
74 | COc1cccc(N(CC(=O)NC2CCCC2)C(=O)Cn2nnc(-c3ccc(C)cc3)n2)c1 | -0.34%
75 | CCn1cc(CN2CCC(C(=O)Nc3ccc(Oc4cccnc4)cc3)CC2)cn1 | 3.57%
76 | CCCS(=O)(=O)c1c(S(=O)(=O)CCC)c2cc(CC)ccn2c1C(=O)OC | -5.76%
77 | Nc1c(C(=O)NC23CC4CC(CC(C4)C2)C3)sc2nc3c(c(C(F)(F)F)c12)CCC3 | 2.07%
78 | COc1ccccc1NC(=O)COc1ccc(CO)cc1Cl | 29.4%
79 | COc1cccc(N(CC(=O)NC2CCCCCC2)S(=O)(=O)c2ccccc2)c1 | 1.36%
80 | COC(=O)c1ccc2c(=O)n(CCCCCC(=O)NCc3ccccn3)c(=O)[nH]c2c1 | -6.7%
81 | CCOc1ccc(C2CC(c3ccccc3C)n3nc(N)nc3N2)cc1 (stereo unspecified) | -1.3%
82 | CN1N=C(C(=O)N2CCCC(Nc3ccc(F)c(F)c3)C2)CCC1=O (stereo unspecified) | 7.4%
83 | C/C(=C\c1ccccc1F)C1Nc2cccc3cccc(c23)N1 | 56.4%
84 | Cn1c(=S)[nH]c2sc3c(c2c1=O)CCC(C(C)(C)C)C3 (stereo unspecified) | 36.4%
85 | O=C(c1nc2ccc(Cl)cn2c1CN1CCC(CO)CC1)N1CCc2ccccc2C1 | -6.53%
86 | Cc1ccc(NC(=O)NC2CCCCC2)cc1Cl | 98.8%
87 | Cc1cc2ccccn2c1C(=O)c1ccc([N+](=O)[O-])o1 | 26.2%
88 | CCCCN(CCCC)C(=S)N/N=C/c1c(C)[nH]n(-c2ccccc2)c1=O | 25.9%

Row | Structure (SMILES) | inhibition
89 | Cc1ccc(NC(=O)CCN2C(=O)C3C4CCC(C4)C3C2=O)cc1[N+](=O)[O-] (stereo unspecified) | 74.6%
90 | CCN(CC)S(=O)(=O)c1ccc(Cl)c(NC(=O)COc2ccc3c(C)cc(=O)oc3c2)c1 | 8.94%
91 | COc1ccc(C2=Nn3c(nnc3-c3ccncc3)SC2)cc1OC | 1.16%
92 | O=C(Nc1nnc(-c2ccc3c(c2)OCCO3)o1)C1CCCCC1 | 39.1%
93 | CCN(CC(=O)Nc1ccc2c(c1)OCCO2)C(=O)c1ccc([N+](=O)[O-])s1 | 26.3%
94 | Cc1cc(Br)ccc1NC(=O)c1ccccc1-c1ccccc1 | 32.9%
95 | COc1ccc(NC(=O)CN2CCN(C3c4ccccc4-c4ccccc43)CC2)c(OC)c1 | 35.8%
96 | CCCn1c(-c2ccc(OC)cc2)nc2ccccc21 | -11.4%
97 | CN(C(=O)CN1C(=O)c2ccccc2S1(=O)=O)c1ccccc1C(=O)O | -0.55%
98 | COC(=O)c1sccc1S(=O)(=O)NC(C)c1cnn(-c2ccc(OC)cc2)c1C (stereo unspecified) | -2.3%
99 | CCCCCCc1nc(C(N)=O)c2[nH]c(=O)n(-c3ccc(OC)cc3OC)c2n1 | 7.81%
100 | N#CC1=C(N)Oc2cc(N)ccc2C1c1ccc(F)cc1 (stereo unspecified) | 2.71%
101 | Cc1nc(CNS(=O)(=O)c2ccc(Br)cc2)cs1 | 9.87%
102 | O=C(Nc1ccnn1C1CCN(Cc2cccc(O)c2)CC1)C1CCCC1 | 6.74%
103 | CCCN1CCc2c(sc(NC(=O)Cc3ccc(F)cc3)c2C(N)=O)C1 | 2.49%
104 | COc1ccc(C(C)C)cc1S(=O)(=O)n1cnc(C)c1 | -0.76%
105 | COc1ccccc1NC(=O)Nc1nn(C)c2cccc(OC)c12 | 28%
106 | Cc1ccc(/C=N/n2c(C3CCCCC3)n[nH]c2=S)cc1 | 6.44%
